# The list shows a part of the results.
# B1: CCL1 (Coprinopsis cinerea) (protein)
# chain: MDTQAKPPAGRYVIYNRVLSPNGEKLALTYPGYQREALTLTPLHHSANQIWILNNWDATTSSLTPETARNTQVGWGSGNVPIVLPPGNYVWTLASSAGGYIIQDGGKTVYWNAGEAVANTKVSIGGDNGLQARWIFERV
# Assays:
# Experiment in all cases: glycan array binding signal (z-score within array); higher = stronger binding
# Conditions in all cases: glycan notation: IUPAC condensed, linker removed
# Gal(b1-3)GlcNAc = biological target: Gal(b1-3)GlcNAc
# Outline: (§1)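 Negative Z-scores can be read as non-binding. The Z-score is calculated within each array and then averaged across arrays of one protein sequence at different concentrations or buffers and across linkers. Arrays, 3228 in all, were curated from the Consortium for Functional Glycomics database and kept only where the protein sequence was available.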
# [1] = biological target: Gal(b1-3)GlcNAc(a1-3)Gal(b1-4)GlcNAc
# Outline: as §1
# [2] = biological target: Gal(b1-3)GlcNAc(a1-6)Gal(b1-4)GlcNAc
# Outline: as §1
# [3] = biological target: Gal(b1-3)GlcNAc(b1-2)Man(a1-3)[Gal(b1-3)GlcNAc(b1-2)Man(a1-6)]Man(b1-4)GlcNAc(b1-4)GlcNAc
# Outline: as §1
# [4] = biological target: Gal(b1-3)GlcNAc(b1-2)Man(a1-3)[Gal(b1-3)GlcNAc(b1-2)Man(a1-6)]Man(b1-4)GlcNAc(b1-4)[Fuc(a1-6)]GlcNAc
# Outline: as §1
# [5] = biological target: Gal(b1-3)GlcNAc(b1-2)Man(a1-3)[GlcNAc(b1-4)][Gal(b1-3)GlcNAc(b1-2)Man(a1-6)]Man(b1-4)GlcNAc(b1-4)GlcNAc
# Outline: as §1
# [6] = biological target: Gal(b1-3)GlcNAc(b1-2)[Gal(b1-3)GlcNAc(b1-6)]Man(a1-6)[Gal(b1-3)GlcNAc(b1-2)Man(a1-3)]Man(b1-4)GlcNAc(b1-4)GlcNAc
# Outline: as §1
# [7] = biological target: Gal(b1-3)GlcNAc(b1-3)Gal(b1-3)GlcNAc
# Outline: as §1
# [8] = biological target: Gal(b1-3)GlcNAc(b1-3)Gal(b1-4)Glc
# Outline: as §1
# [9] = biological target: Gal(b1-3)GlcNAc(b1-3)Gal(b1-4)GlcNAc
# Outline: as §1
# [10] = biological target: Gal(b1-3)GlcNAc(b1-3)Gal(b1-4)GlcNAc(b1-6)[Gal(b1-3)GlcNAc(b1-3)]Gal(b1-4)Glc
# Outline: as §1
# [11] = biological target: Gal(b1-3)GlcNAc(b1-3)Gal(b1-4)[Fuc(a1-3)]GlcNAc(b1-6)[Gal(b1-3)GlcNAc(b1-3)]Gal(b1-4)Glc
# Outline: as §1
# [12] = biological target: Gal(b1-3)GlcNAc(b1-3)GalNAc
# Outline: as §1
# [13] = biological target: Gal(b1-3)GlcNAc(b1-6)Gal(b1-4)GlcNAc
# Outline: as §1
# [14] = biological target: Gal(b1-3)GlcNAc(b1-6)GalNAc
# Outline: as §1
# Gal(b1-3)GlcNAc6S = biological target: Gal(b1-3)GlcNAc6S
# Outline: as §1
# [15] = biological target: Gal(b1-3)[Fuc(a1-4)]GlcNAc
# Outline: as §1
# [16] = biological target: Gal(b1-3)[Fuc(a1-4)]GlcNAc(b1-2)Man(a1-3)[Gal(b1-3)[Fuc(a1-4)]GlcNAc(b1-2)Man(a1-6)]Man(b1-4)GlcNAc(b1-4)[Fuc(a1-6)]GlcNAc
# Outline: as §1
# [17] = biological target: Gal(b1-3)[Fuc(a1-4)]GlcNAc(b1-3)Gal(b1-3)[Fuc(a1-4)]GlcNAc
# Outline: as §1
# [18] = biological target: Gal(b1-3)[Fuc(a1-4)]GlcNAc(b1-3)Gal(b1-4)GlcNAc
# Outline: as §1
# [19] = biological target: Gal(b1-3)[Fuc(a1-4)]GlcNAc(b1-3)Gal(b1-4)[Fuc(a1-3)]GlcNAc
# Outline: as §1
# [20] = biological target: Gal(b1-3)[Fuc(a1-4)]GlcNAc(b1-6)GalNAc
# Outline: as §1
# [21] = biological target: Gal(b1-3)[GlcNAc(b1-6)]GalNAc
# Outline: as §1
# [22] = biological target: Gal(b1-3)[Neu5Ac(a2-6)]GalNAc
# Outline: as §1
# [23] = biological target: Gal(b1-3)[Neu5Ac(a2-6)]GlcNAc(b1-6)Gal(b1-4)Glc
# Outline: as §1
# [24] = biological target: Gal(b1-3)[Neu5Ac(b2-6)]GalNAc
# Outline: as §1
# Gal(b1-4)Gal = biological target: Gal(b1-4)Gal
# Outline: as §1
# [25] = biological target: Gal(b1-4)GalNAc(a1-3)[Fuc(a1-2)]Gal(b1-4)GlcNAc
# Outline: as §1
# [26] = biological target: Gal(b1-4)GalNAc(b1-3)[Fuc(a1-2)]Gal(b1-4)GlcNAc
# Outline: as §1
# Gal(b1-4)Glc = biological target: Gal(b1-4)Glc
# Outline: as §1
# Gal(b1-4)Glc6S = biological target: Gal(b1-4)Glc6S
# Outline: as §1
# Gal(b1-4)GlcNAc = biological target: Gal(b1-4)GlcNAc
# Outline: as §1
# [27] = biological target: Gal(b1-4)GlcNAc(a1-6)Gal(b1-4)GlcNAc
# Outline: as §1
# Gal(b1-4)GlcNAc(b1-2)Man = biological target: Gal(b1-4)GlcNAc(b1-2)Man
# Outline: as §1
# [28] = biological target: Gal(b1-4)GlcNAc(b1-2)Man(a1-3)Man(b1-4)GlcNAc(b1-4)GlcNAc
# Outline: as §1
# [29] = biological target: Gal(b1-4)GlcNAc(b1-2)Man(a1-3)[Gal(b1-4)GlcNAc(b1-2)Man(a1-6)]Man(b1-4)GlcNAc(b1-4)GlcNAc
# Outline: as §1
# [30] = biological target: Gal(b1-4)GlcNAc(b1-2)Man(a1-3)[Gal(b1-4)GlcNAc(b1-2)Man(a1-6)]Man(b1-4)GlcNAc(b1-4)[Fuc(a1-6)]GlcNAc
# Outline: as §1
# [31] = biological target: Gal(b1-4)GlcNAc(b1-2)Man(a1-3)[Gal(b1-4)GlcNAc(b1-2)][GlcNAc(b1-4)]Man(b1-4)GlcNAc(b1-4)GlcNAc
# Outline: as §1
# [32] = biological target: Gal(b1-4)GlcNAc(b1-2)Man(a1-3)[GlcNAc(b1-2)Man(a1-6)]Man(b1-4)GlcNAc(b1-4)GlcNAc
# Outline: as §1
# [33] = biological target: Gal(b1-4)GlcNAc(b1-2)Man(a1-3)[Man(a1-6)]Man(b1-4)GlcNAc(b1-4)GlcNAc
# Outline: as §1
# [34] = biological target: Gal(b1-4)GlcNAc(b1-2)Man(a1-6)Man(b1-4)GlcNAc(b1-4)GlcNAc
# Outline: as §1
# [35] = biological target: Gal(b1-4)GlcNAc(b1-2)Man(a1-6)[GlcNAc(b1-2)Man(a1-3)]Man(b1-4)GlcNAc(b1-4)GlcNAc
# Outline: as §1
# [36] = biological target: Gal(b1-4)GlcNAc(b1-2)Man(a1-6)[Man(a1-3)]Man(b1-4)GlcNAc(b1-4)GlcNAc
# Outline: as §1
# [37] = biological target: Gal(b1-4)GlcNAc(b1-2)[Gal(b1-4)GlcNAc(b1-4)]Man(a1-3)[Gal(b1-4)GlcNAc(b1-2)Man(a1-6)]Man(b1-4)GlcNAc(b1-4)GlcNAc
# Outline: as §1
# [38] = biological target: Gal(b1-4)GlcNAc(b1-2)[Gal(b1-4)GlcNAc(b1-4)]Man(a1-3)[Gal(b1-4)GlcNAc(b1-2)[Gal(b1-4)GlcNAc(b1-6)]Man(a1-6)]Man(b1-4)GlcNAc(b1-4)GlcNAc
# Outline: as §1
binder,measurement,setting,value
B1,glycan array binding signal (z-score),Gal(b1-3)GlcNAc,-0.15
same,glycan array binding signal (z-score),[1],-0.167
same,glycan array binding signal (z-score),[2],-0.169
same,glycan array binding signal (z-score),[3],-0.119
same,glycan array binding signal (z-score),[4],-0.121
same,glycan array binding signal (z-score),[5],-0.107
same,glycan array binding signal (z-score),[6],-0.145
same,glycan array binding signal (z-score),[7],-0.152
same,glycan array binding signal (z-score),[8],-0.112
same,glycan array binding signal (z-score),[9],-0.156
same,glycan array binding signal (z-score),[10],-0.145
same,glycan array binding signal (z-score),[11],0.276
same,glycan array binding signal (z-score),[12],-0.129
same,glycan array binding signal (z-score),[13],-0.152
same,glycan array binding signal (z-score),[14],-0.141
same,glycan array binding signal (z-score),Gal(b1-3)GlcNAc6S,-0.129
same,glycan array binding signal (z-score),[15],-0.122
same,glycan array binding signal (z-score),[16],-0.111
same,glycan array binding signal (z-score),[17],-0.148
same,glycan array binding signal (z-score),[18],1.34
same,glycan array binding signal (z-score),[19],0.007
same,glycan array binding signal (z-score),[20],-0.063
same,glycan array binding signal (z-score),[21],-0.144
same,glycan array binding signal (z-score),[22],-0.117
same,glycan array binding signal (z-score),[23],-0.154
same,glycan array binding signal (z-score),[24],-0.142
same,glycan array binding signal (z-score),Gal(b1-4)Gal,-0.126
same,glycan array binding signal (z-score),[25],-0.142
same,glycan array binding signal (z-score),[26],-0.16
same,glycan array binding signal (z-score),Gal(b1-4)Glc,-0.163
same,glycan array binding signal (z-score),Gal(b1-4)Glc6S,-0.123
same,glycan array binding signal (z-score),Gal(b1-4)GlcNAc,-0.162
same,glycan array binding signal (z-score),[27],-0.156
same,glycan array binding signal (z-score),Gal(b1-4)GlcNAc(b1-2)Man,-0.167
same,glycan array binding signal (z-score),[28],-0.138
same,glycan array binding signal (z-score),[29],-0.138
same,glycan array binding signal (z-score),[30],-0.134
same,glycan array binding signal (z-score),[31],-0.109
same,glycan array binding signal (z-score),[32],-0.106
same,glycan array binding signal (z-score),[33],-0.13
same,glycan array binding signal (z-score),[34],-0.133
same,glycan array binding signal (z-score),[35],-0.109
same,glycan array binding signal (z-score),[36],-0.16
same,glycan array binding signal (z-score),[37],-0.129
same,glycan array binding signal (z-score),[38],-0.13

# Reference: the supplement of paper PMC8728848
